# Measurements from the supplement of paper PMC8728848.
# This is one part of the list.
# What was measured:
# Experiment in all cases: glycan array binding signal (z-score within array); higher = stronger binding
# Settings in all cases: glycan notation: IUPAC condensed, linker removed
# [1] = biological target: Gal(b1-4)GlcNAc(b1-3)Gal(b1-4)GlcNAc(b1-6)[Gal(b1-3)]GalNAc
# How it was run: (§1)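 Glycan array data were curated from 3228 arrays in the Consortium for Functional Glycomics database and kept only where the protein sequence was available. Glycan names were converted to IUPAC-condensed notation, and columns mapping to the same glycan were averaged. The binding signal is a within-array Z-score, averaged across arrays of the same protein sequence at different concentrations or buffers and across linkers. Negative Z-scores can be read as non-binding.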
# [2] = biological target: Gal(b1-4)GlcNAc(b1-3)Gal(b1-4)[Fuc(a1-3)]GlcNAc(b1-3)Gal(b1-4)[Fuc(a1-3)]GlcNAc
# How it was run: as §1
# [3] = biological target: Gal(b1-4)GlcNAc(b1-3)GalNAc
# How it was run: as §1
# [4] = biological target: Gal(b1-4)GlcNAc(b1-3)[Fuc(a1-3)GlcNAc(b1-6)]Gal(b1-4)Glc
# How it was run: as §1
# [5] = biological target: Gal(b1-4)GlcNAc(b1-3)[Gal(b1-4)GlcNAc(b1-6)]Gal(b1-4)GlcNAc
# How it was run: as §1
# [6] = biological target: Gal(b1-4)GlcNAc(b1-3)[GlcNAc(b1-6)]Gal(b1-4)GlcNAc
# How it was run: as §1
# [7] = biological target: Gal(b1-4)GlcNAc(b1-6)Gal(b1-4)GlcNAc
# How it was run: as §1
# [8] = biological target: Gal(b1-4)GlcNAc(b1-6)GalNAc
# How it was run: as §1
# [9] = biological target: Gal(b1-4)GlcNAc(b1-6)[Gal(b1-3)]GalNAc
# How it was run: as §1
# [10] = biological target: Gal(b1-4)GlcNAc(b1-6)[Gal(b1-4)GlcNAc(b1-3)]GalNAc
# How it was run: as §1
# Gal(b1-4)GlcNAc6P = biological target: Gal(b1-4)GlcNAc6P
# How it was run: as §1
# Gal(b1-6)Gal = biological target: Gal(b1-6)Gal
# How it was run: as §1
# Gal3S(b1-3)GalNAc = biological target: Gal3S(b1-3)GalNAc
# How it was run: as §1
# Gal3S(b1-3)GlcNAc = biological target: Gal3S(b1-3)GlcNAc
# How it was run: as §1
# [11] = biological target: Gal3S(b1-3)[Fuc(a1-4)]GlcNAc
# How it was run: as §1
# Gal3S(b1-4)Glc = biological target: Gal3S(b1-4)Glc
# How it was run: as §1
# Gal3S(b1-4)Glc6S = biological target: Gal3S(b1-4)Glc6S
# How it was run: as §1
# Gal3S(b1-4)GlcNAc = biological target: Gal3S(b1-4)GlcNAc
# How it was run: as §1
# [12] = biological target: Gal3S(b1-4)[Fuc(a1-3)]Glc6S
# How it was run: as §1
# [13] = biological target: Gal3S(b1-4)[Fuc(a1-3)]GlcNAc
# How it was run: as §1
# [14] = biological target: Gal3S(b1-4)[Fuc(a1-3)]GlcNAc6S
# How it was run: as §1
# Gal3S4S(b1-4)GlcNAc = biological target: Gal3S4S(b1-4)GlcNAc
# How it was run: as §1
# Gal3S6S(b1-4)GlcNAc = biological target: Gal3S6S(b1-4)GlcNAc
# How it was run: as §1
# Gal3S6S(b1-4)GlcNAc6S = biological target: Gal3S6S(b1-4)GlcNAc6S
# How it was run: as §1
# Gal4S(b1-4)GlcNAc = biological target: Gal4S(b1-4)GlcNAc
# How it was run: as §1
# Gal4S6S(b1-4)GlcNAc = biological target: Gal4S6S(b1-4)GlcNAc
# How it was run: as §1
# Gal6P(b1-4)GlcNAc = biological target: Gal6P(b1-4)GlcNAc
# How it was run: as §1
# Gal6S(b1-3)GlcNAc = biological target: Gal6S(b1-3)GlcNAc
# How it was run: as §1
# Gal6S(b1-3)GlcNAc6S = biological target: Gal6S(b1-3)GlcNAc6S
# How it was run: as §1
# Gal6S(b1-4)Glc = biological target: Gal6S(b1-4)Glc
# How it was run: as §1
# Gal6S(b1-4)Glc6S = biological target: Gal6S(b1-4)Glc6S
# How it was run: as §1
# Gal6S(b1-4)GlcNAc = biological target: Gal6S(b1-4)GlcNAc
# How it was run: as §1
# Gal6S(b1-4)GlcNAc6S = biological target: Gal6S(b1-4)GlcNAc6S
# How it was run: as §1
# GalNAc(a1-3)Gal = biological target: GalNAc(a1-3)Gal
# How it was run: as §1
# GalNAc(a1-3)GalNAc = biological target: GalNAc(a1-3)GalNAc
# How it was run: as §1
# [15] = biological target: GalNAc(a1-3)GalNAc(b1-3)Gal(a1-4)Gal(b1-4)Glc
# How it was run: as §1
# [16] = biological target: GalNAc(a1-3)GalNAc(b1-3)Gal(a1-4)Gal(b1-4)GlcNAc
# How it was run: as §1
binder,measurement,setting,value
PX9961U-pdi-543-24-543 (Parabacteroides distasonis) (protein) EEPVGEFLPGQVESEENIEGIVTGAYAVLDGYYASDAINSGCSNWQFGDVVSDDAYKGGGGTGDQNQIHLMEIFNANPTGIDFEARWAALYEGIKRCNQAIRLLNGSEVKNKEQRLAEMRFLRGHYYFNLKIIYNQIPWIDETLVDPNEYNKKSNIEFSSDQLWEKILEEFSAAYKVLPESQADYGRPTKMAARAYMAKVYLYQSKWKECLEACDEVIQSGKYELFPDFRNVFLPENDNCSEIIFAIQLSINDGSPNNENGSYGDRLLPPGGPYPVYGFLRPTQNLVNAYKTDVKGLPYNDGKDVSENDYVDVRLDHTLARPNIPFMDVQLYDWTPREASVYGPYSPKKRLVSLNSTYYSPIWPYVNALNFYVIRYADLLLWRAEAAIETGDLETGRKYINMIRERAKNTQHVKTMDQSQDAANYKVGVYDEPFKSKNEAVQALRMERRLEMAHEGIRFFDLVRWGVADEVINAYIAKEKVFRSHLQNAHFVKGKHEYFPIPQSMIDICGTEVMKQNPGY,glycan array binding signal (z-score),[1],2.73
same,glycan array binding signal (z-score),[2],0.007
same,glycan array binding signal (z-score),[3],-0.37
same,glycan array binding signal (z-score),[4],0.418
same,glycan array binding signal (z-score),[5],0.882
same,glycan array binding signal (z-score),[6],-0.428
same,glycan array binding signal (z-score),[7],-0.226
same,glycan array binding signal (z-score),[8],-0.178
same,glycan array binding signal (z-score),[9],0.217
same,glycan array binding signal (z-score),[10],0.48
same,glycan array binding signal (z-score),Gal(b1-4)GlcNAc6P,-0.434
same,glycan array binding signal (z-score),Gal(b1-6)Gal,-0.422
same,glycan array binding signal (z-score),Gal3S(b1-3)GalNAc,-0.41
same,glycan array binding signal (z-score),Gal3S(b1-3)GlcNAc,-0.395
same,glycan array binding signal (z-score),[11],-0.373
same,glycan array binding signal (z-score),Gal3S(b1-4)Glc,-0.289
same,glycan array binding signal (z-score),Gal3S(b1-4)Glc6S,-0.356
same,glycan array binding signal (z-score),Gal3S(b1-4)GlcNAc,-0.348
same,glycan array binding signal (z-score),[12],0.065
same,glycan array binding signal (z-score),[13],-0.303
same,glycan array binding signal (z-score),[14],-0.27
same,glycan array binding signal (z-score),Gal3S4S(b1-4)GlcNAc,-0.37
same,glycan array binding signal (z-score),Gal3S6S(b1-4)GlcNAc,-0.299
same,glycan array binding signal (z-score),Gal3S6S(b1-4)GlcNAc6S,-0.332
same,glycan array binding signal (z-score),Gal4S(b1-4)GlcNAc,-0.452
same,glycan array binding signal (z-score),Gal4S6S(b1-4)GlcNAc,-0.394
same,glycan array binding signal (z-score),Gal6P(b1-4)GlcNAc,-0.41
same,glycan array binding signal (z-score),Gal6S(b1-3)GlcNAc,-0.416
same,glycan array binding signal (z-score),Gal6S(b1-3)GlcNAc6S,-0.387
same,glycan array binding signal (z-score),Gal6S(b1-4)Glc,0.317
same,glycan array binding signal (z-score),Gal6S(b1-4)Glc6S,-0.286
same,glycan array binding signal (z-score),Gal6S(b1-4)GlcNAc,-0.03
same,glycan array binding signal (z-score),Gal6S(b1-4)GlcNAc6S,0.185
same,glycan array binding signal (z-score),GalNAc(a1-3)Gal,-0.221
same,glycan array binding signal (z-score),GalNAc(a1-3)GalNAc,-0.455
same,glycan array binding signal (z-score),[15],-0.366
same,glycan array binding signal (z-score),[16],-0.277
